Results on 172 sequences are retold here after publication PMC5836133.

Some of the results follow. At the low end of the ranking the order means little.

This assay relates to T1, GST-NbGlk1(82-244).
T1 sequence: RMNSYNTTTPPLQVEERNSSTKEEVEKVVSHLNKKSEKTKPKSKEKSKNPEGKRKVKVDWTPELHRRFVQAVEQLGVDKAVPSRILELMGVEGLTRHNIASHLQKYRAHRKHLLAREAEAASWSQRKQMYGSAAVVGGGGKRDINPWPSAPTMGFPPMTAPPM
The assay can be described thus: protein-binding microarray.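 Further: rank-based score ranging −0.5 to +0.5 with E above 0.45 taken as significant binding.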 To be noted: NbGlk1 is a Golden2-like transcription factor of Nicotiana benthamiana; high values mean tight binding; most listed sequences are background and not binding sites; double strand, one strand shown.
Regarding ACAAATGA, the binding signal is 0.0633 E-score.

For the sequence ATGTCCTG, the binding signal is -0.143 E-score. The same measure for AATAACAG: 0.0587 E-score; for AATGCTGC: -0.186 E-score.

On to ATTGAGAG, for which the binding signal was -0.0172 E-score.

CACCGCGC: the binding signal was -0.0057 E-score. As to ATGGGTCC, the binding signal is -0.242 E-score. The value for AGTTGGTA was 0.0777 E-score. The same measure for AGCTTTGC: -0.107 E-score; for AAGAGCGA: 0.00939 E-score. The same measure for AGGTTTCA: -0.179 E-score; for AGCATACA: -0.0867 E-score; for AGCACAGG: -0.236 E-score. For AACCACTT, the binding signal was -0.0254 E-score.

On to ACTGCGGG, for which the binding signal was -0.0271 E-score. The value for ACAACCGC was -0.0874 E-score; that for AGCTGAGA was 0.0806 E-score. The value for AGATATAG was 0.225 E-score; that for ATACTTTA was 0.1 E-score. Regarding AAGGGTGC, the binding signal is -0.283 E-score. The same measure for AGGCCCAT: -0.211 E-score; for ACCCAAGT: -0.225 E-score. For the sequence ATGGGCCC, the binding signal was -0.342 E-score. Regarding ACTAGTCA, the binding signal was -0.193 E-score. The same measure for ATAGTCAG: -0.0731 E-score; for AGTAATGG: -0.0934 E-score; for CAAGCGAA: -0.00999 E-score. In the case of ACTAGATG, the binding signal is -0.117 E-score. The value for AGGAAGCG was -0.173 E-score; that for CAATGTGA was -0.0157 E-score. The value for AGGGGGAC was -0.333 E-score; that for ATTGGGAG was 0.0185 E-score; that for AAAGTACC was -0.141 E-score. Sequence AAAATGTG yielded a binding signal of 0.01 E-score. The value for ATACCTAT was 0.0775 E-score; that for ACGATGCC was -0.205 E-score.

In turn, ATCCCCCC gave a binding signal of 0.0775 E-score. The same measure for AGGTGACA: -0.0422 E-score. The same measure for ACTACGAA: -0.0463 E-score.

For ACCGGTCC, the binding signal is -0.153 E-score.

ATAAATCA registered a binding signal of 0.239 E-score. Take ACCATACA: the binding signal was -0.0128 E-score. The value for AAAGTCCC was -0.34 E-score; that for ACTGGCCC was -0.171 E-score; that for ACACAAGC was -0.116 E-score. The value for AAACGAGA was 0.137 E-score; that for ACACTGGC was -0.185 E-score. The value for AAGAGTCG was -0.0465 E-score; that for ATTTGATC was 0.164 E-score; that for ATCAGCTA was 0.109 E-score. The sequence ATCCGCAG gave a binding signal of 0.223 E-score. The same measure for AAGACGGC: -0.248 E-score; for AACGTACC: -0.247 E-score; for AAAAGAGT: 0.0215 E-score. The same measure for CACAACAA: 0.141 E-score; for AGTCTCCC: -0.377 E-score. The value for AGCAGCAC was -0.174 E-score. For AAGACCGA, the binding signal is -0.234 E-score.

On to ATGAAGCC, for which the binding signal is -0.296 E-score.

For the sequence CAAGCGAC, the binding signal is -0.14 E-score. The same measure for ACGTAAAC: -0.062 E-score; for AAGCTCCT: -0.305 E-score; for AGCATGTC: -0.121 E-score. The value for CAGCAGGA was -0.132 E-score; that for ATGCACTC was -0.182 E-score; that for AATCTGCC was 0.34 E-score. The same measure for ATCCGATG: 0.208 E-score; for CACAGGCG: -0.171 E-score. For AGTTCTGC, the binding signal is -0.0185 E-score.

In the case of ATATACCG, the binding signal came to 0.0722 E-score. The same measure for AGCACTTA: -0.0371 E-score; for AGCCGCCT: -0.236 E-score; for CAGAAGGC: -0.286 E-score. Regarding AACTACCA, the binding signal is -0.0569 E-score.

On to ATCCTAGC, for which the binding signal came to 0.237 E-score.

AGGCACCT: the binding signal was -0.254 E-score. The same measure for CACTCCGC: -0.203 E-score. The value for CAGCGTCC was -0.16 E-score. The same measure for CAACTTTA: -0.034 E-score; for ACGGAGAG: -0.185 E-score. Regarding CAAACACC, the binding signal was -0.104 E-score.

For the sequence AGATTCCA, the binding signal came out at 0.433 E-score. The value for AATTACCT was 0.213 E-score; that for AAACGTTC was -0.171 E-score. The sequence AAGTTAGT returned a binding signal of 0.00702 E-score.

For AGCCGACT, the binding signal was -0.187 E-score. Sequence CAATACAG had a binding signal of 0.0681 E-score. In the case of AACGAGCT, the binding signal was -0.0762 E-score. The value for AGTGGAGG was -0.202 E-score; that for AAACCCTC was -0.237 E-score; that for ATTTCGTG was 0.367 E-score.

For ACCGTTTG, the binding signal is -0.0244 E-score.

In turn, ATATCCGG came in with a binding signal of 0.436 E-score. The same measure for AGCGGCGG: -0.205 E-score; for ACGATGCG: -0.0275 E-score; for ATTCGTTA: 0.202 E-score. The same measure for AGTCATTG: -0.0345 E-score.

Consider ATGAGCTA, for which the binding signal was -0.171 E-score.

ACTTGGAA showed a binding signal of 0.0699 E-score. On to AGTAACTA, for which the binding signal was determined as 0.0576 E-score. The same measure for AGTGCTAA: -0.0173 E-score; for ACAGGTAG: -0.0986 E-score; for AAACCAGT: -0.0791 E-score. The value for AACAAAGC was -0.0125 E-score; that for AGAAACCG was -0.0287 E-score; that for AACGGACC was -0.184 E-score. The value for AGCACTAC was -0.0703 E-score; that for AGTTGTAT was 0.0957 E-score; that for CAACCCAG was -0.138 E-score. For the sequence AGAATAGG, the binding signal was -0.0981 E-score.

In turn, ATTGGTTG came in with a binding signal of 0.0205 E-score. In turn, ATCGATTG yielded a binding signal of 0.272 E-score. The same measure for AACGCGAA: 0.0618 E-score; for AGTGCCGC: -0.193 E-score. The same measure for AAATAGCT: 0.0072 E-score; for AGGCTGCA: -0.211 E-score.

As to ACATTTGC, the binding signal is -0.103 E-score. For the sequence AAAGTGCA, the binding signal was -0.1 E-score. The same measure for ACGCCAGC: -0.283 E-score.

As for CAAACAAA, the binding signal worked out at 0.0211 E-score. The value for ACAAGTGG was -0.197 E-score; that for CAATTTTA was 0.111 E-score; that for AATCACTC was 0.133 E-score. The same measure for ACAAGTGT: -0.197 E-score; for ACCGGTCT: -0.125 E-score; for ATTTGTAG: 0.21 E-score. The value for CACCAGTG was -0.299 E-score. As for ACGGCGGG, the binding signal was -0.131 E-score. The value for ATCGAGAG was 0.0944 E-score; that for ACGGAATC was 0.453 E-score.

For AGATGGAC, the binding signal was -0.292 E-score. The same measure for ATCGGAAA: 0.25 E-score; for ACGCGCTC: -0.127 E-score.

As to CACGTACA, the binding signal is -0.00907 E-score. The value for AAGGTAAG was -0.0123 E-score. For AGCTCCCC, the binding signal is -0.186 E-score. For the sequence AGGATGAA, the binding signal was -0.213 E-score. In the case of AATGGGTA, the binding signal is -0.0452 E-score.

Consider AGTTGACC, for which the binding signal was -0.242 E-score. The same measure for ATGCGCCG: -0.0258 E-score; for CAAGCACC: -0.168 E-score; for ATGTTTTA: 0.00726 E-score. Take AAAGCGAC: the binding signal is -0.245 E-score. The same measure for ATCCTGTG: 0.205 E-score; for ACTCAGAA: 0.122 E-score. The same measure for ATGAACCC: -0.259 E-score; for CAGCAGCG: -0.155 E-score. The value for CAACGATG was -0.0643 E-score.

AGAATCGA returned a binding signal of 0.342 E-score. The value for ATGACGGG was -0.223 E-score; that for CACCCTAA was -0.00986 E-score; that for AGGTCTGC was -0.163 E-score. The same measure for ACTTTTTA: 0.0564 E-score; for ATCTGAGG: 0.265 E-score. The same measure for ACCAAAAC: -0.0457 E-score. Regarding AAGCTAAG, the binding signal was -0.23 E-score. The value for CACCTTCC was -0.165 E-score; that for CAGCGCGA was 0.038 E-score. The value for ACCCTACG was -0.108 E-score. The value for AATCGTAG was 0.291 E-score; that for ATACAATG was -0.103 E-score; that for AATGCGGT was -0.077 E-score. The sequence AATAACGG displayed a binding signal of 0.0191 E-score. Turning to AAAATATT, the binding signal was determined as 0.316 E-score. The value for AGTCGTCG was -0.221 E-score. The same measure for ATTCTTCC: 0.221 E-score. The same measure for AGCCATAA: -0.11 E-score; for CAAACATA: -0.0374 E-score. As for AGCTCCCG, the binding signal was -0.156 E-score.

In turn, AATTGAAC had a binding signal of 0.0227 E-score.

In turn, ACGAAAGT returned a binding signal of 0.00133 E-score.

As for ACTGGCCG, the binding signal is -0.101 E-score.
